{"source": "PubChem BioAssay AID903", "about": "(National Center for Advancing Translational Sciences (NCATS), 2007)", "note": "In all, about 55,000 compounds went through this assay and about 340 (0.62%) were called active. This list was built around the results that the source calls inconclusive (neither active nor inactive); the mix of calls is not that of the screen. Calls come from the whole dose curve; as a rule, active = well fitted cell-killing curve with a large enough effect; inconclusive = small, poorly fitted or top-dose-only effect; inactive = no such curve, though single readings can be large or run the other way. A potency beside an inconclusive call is a rough fit, not a confirmed value.", "data": [{"test": "qHTS Screen for Compounds that Selectively Target Cancer Cells with p53 Mutations: Cytotoxicity of p53 Null Cells at the Permissive Temperature; note: nearly all actives have a fitted effect of over 55% in size;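 for activity change, negative = cytotoxicity: 0% = DMSO only and -100% = full killing by 100 µM tamoxifen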; for potency: tags give direction and shape of the fitted curve", "conditions": "H1299-neo p53 null cells, ATP luminescence, 24 h, 32C; series mostly up to 46.1 µM; activity change, negative = cytotoxicity: at the top concentration", "how_it_was_run": "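Cytotoxicity: H1299-neo (no p53), 32C, 24 h treatment. Concentrations up to 46 uM. Readout cellular ATP, luminescence. Normalization to DMSO basal and tamoxifen 100 uM maximal kill.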", "values": [{"molecule": "COc1ccc(NC(=O)C2CCCN(c3nnc(C)c4c(C)n(-c5ccccc5)nc34)C2)cc1Cl", "note": "(stereo unspecified)", "Potency": "inconclusive: 15.8 µM [cytotoxic, single point]"}, {"molecule": "CCOc1ccc(-c2nnc(SCC(=O)Nc3cc(C)ccc3OC)o2)cc1", "Potency": "inconclusive: 12.6 µM [cytotoxic, partial curve]"}, {"molecule": "O=C(Nc1ccccc1F)c1oc2ccccc2c1NC(=O)c1c(F)cccc1F", "Potency": "inconclusive: 35.5 µM [cytotoxic, single point]"}, {"molecule": "Cc1cccc(-c2nnc(SCC(=O)N3CCCCC3)o2)c1", "Potency": "inconclusive: 12.6 µM [cytotoxic, partial curve]"}, {"molecule": "Cc1c(Cl)cccc1-c1ccc(/C=C(\\C#N)c2nc3ccccc3[nH]2)o1", "Potency": "inconclusive: 25.1 µM [cytotoxic, single point]"}, {"molecule": "COc1ccc(CCCc2nnc(SCC(=O)Nc3ccc(C)cc3)o2)cc1C", "Potency": "inconclusive: 0.01 µM [cytotoxic, full curve]"}, {"molecule": "CCCS(=O)(=O)Nc1cc(-c2cn3ccc(C)cc3n2)ccc1C", "Potency": "inconclusive: 10 µM [cytotoxic, partial curve]"}, {"molecule": "COc1cc(C(=O)Nc2nonc2-c2ccc(Cl)cc2)cc(OC)c1OC", "Potency": "inconclusive: 12.6 µM [cytotoxic, single point]"}, {"molecule": "Cc1ccc(Cl)cc1NC(=O)Cn1ncc2c(C)n(Cc3ccccc3F)c(C)c2c1=O", "activity change, negative = cytotoxicity": "inactive: -9.49%"}, {"molecule": "CC1CN(C(=O)CCC(=O)NCc2ccccc2)c2cc(Cl)ccc2O1", "note": "(stereo unspecified)", "Potency": "inconclusive: 31.6 µM [cytotoxic, single point]"}, {"molecule": "CCN(c1ccccc1)c1ncnc2c1cnn2-c1ccc(OC)cc1", "Potency": "inconclusive: 7.94 µM [cytotoxic, partial curve]"}, {"molecule": "O=C(Cn1c(=O)n(Cc2ccco2)c(=O)c2sc3ccccc3c21)Nc1ccc(F)cc1F", "Potency": "inconclusive: 3.55 µM [cytotoxic, single point]"}, {"molecule": "COc1ccc(C(=O)N(Cc2ccco2)Cc2ccccc2F)cc1Cl", "Potency": "inconclusive: 25.1 µM [cytotoxic, single point]"}, {"molecule": "CCN(C(=O)CSc1nc(-c2ccc(C(C)C)cc2)no1)c1ccccc1", "activity change, negative = cytotoxicity": "inactive: 12.9%"}, {"molecule": "Cc1csc2nc(-c3cccc(NC(=O)c4cccc(F)c4)c3)cn12", "Potency": "inconclusive: 22.4 µM [cytotoxic, single point]"}, {"molecule": "CC(C)Oc1ccc(CNC(=O)Cc2ccc(NC(=O)N3CCSc4ncccc43)cc2)cc1", "activity change, negative = cytotoxicity": "inactive: -9.02%"}, {"molecule": "CCC(=O)N1CCc2cc(S(=O)(=O)CCC(=O)N3CCN(c4cccc(C)c4)C(C)C3)ccc21", "note": "(stereo unspecified)", "activity change, negative = cytotoxicity": "inactive: 16.2%"}, {"molecule": "O=C(NCC1(c2ccccc2)CCCC1)C(=O)Nc1cccc(C(F)(F)F)c1", "activity change, negative = cytotoxicity": "inactive: 5.29%"}, {"molecule": "O=C(CSc1n[nH]c(-c2ccccc2)n1)N1CCCCC1", "Potency": "inconclusive: 12.6 µM [cytotoxic, single point]"}, {"molecule": "O=C(Nc1noc2ccccc12)c1cccc(F)c1", "Potency": "inconclusive: 10 µM [cytotoxic, partial curve]"}, {"molecule": "CC(=O)c1ccc(NC(=O)CCc2c(C)nn(-c3ccc4nncn4n3)c2C)cc1", "Potency": "inconclusive: 4.47 µM [cytotoxic, single point]"}, {"molecule": "CC(C)c1ccc(C(=O)Nc2cccc3cccnc23)cc1", "Potency": "inconclusive: 15.8 µM [cytotoxic, single point]"}, {"molecule": "COc1cccc(NC(CNS(=O)(=O)c2ccc(C)cc2)c2ccccc2)c1", "note": "(stereo unspecified)", "Potency": "inconclusive: 31.6 µM [cytotoxic, single point]"}, {"molecule": "CCOC(=O)c1ccc(NC(=O)c2sc3ccccc3c2Cl)cc1", "Potency": "inconclusive: 10 µM [cytotoxic, partial curve]"}, {"molecule": "COc1ccc(C)cc1NC(=O)c1cc2ccccn2n1", "Potency": "inconclusive: 12.6 µM [cytotoxic, partial curve, poor fit]"}, {"molecule": "CCc1ccc(NS(=O)(=O)c2ccc3[nH]cc(C(=O)NC4CCCC4)c(=O)c3c2)cc1", "Potency": "inconclusive: 12.6 µM [cytotoxic, partial curve]"}, {"molecule": "O=C(CSc1nc2cc3ccccc3cc2[nH]1)Nc1cccc(C(F)(F)F)c1", "Potency": "inconclusive: 31.6 µM [cytotoxic, single point]"}, {"molecule": "CCCCN(C)CCNC(=O)C1CCN(c2nc3ccc(CC)cc3s2)CC1", "Potency": "inconclusive: 10 µM [cytotoxic, partial curve]"}, {"molecule": "Cc1nc2cc(-c3cccc(F)c3)nn2c(C)c1CCC(=O)NC1CCCCC1", "activity change, negative = cytotoxicity": "inactive: -8.7%"}, {"molecule": "O=C(CSc1nnc2[nH]c(=O)cc(-c3ccccc3)n12)Nc1ccccc1C(F)(F)F", "Potency": "inconclusive: 3.98 µM [cytotoxic, full curve, poor fit]"}, {"molecule": "Cc1ccc(C(=O)COC(=O)c2cccs2)cc1", "Potency": "inconclusive: 14.1 µM [cytotoxic, partial curve]"}, {"molecule": "CCc1ccc2nc(N3CCC(C(=O)NCCC(C)C)CC3)sc2c1", "Potency": "inconclusive: 12.6 µM [cytotoxic, partial curve]"}, {"molecule": "COc1cccc2cc(-c3nc4ccc(C)cc4[nH]3)c(=O)oc12", "Potency": "inconclusive: 7.94 µM [cytotoxic, partial curve]"}, {"molecule": "Cc1ccccc1NC(=O)CCn1nc(-c2ccc(Cl)cc2)c2ccccc2c1=O", "Potency": "inconclusive: 25.1 µM [cytotoxic, single point]"}, {"molecule": "Cc1ccc(NC(=O)CCc2nc3cccnc3n2-c2ccccc2)cc1Cl", "Potency": "inconclusive: 2 µM [cytotoxic, partial curve, poor fit]"}, {"molecule": "O=C(Nc1ccc(F)cc1Cl)c1cnc(N2CCOCC2)c2ccccc12", "Potency": "inconclusive: 4.47 µM [cytotoxic, single point]"}, {"molecule": "Cc1ccccc1Nc1c(-c2c[nH]c3ccccc23)nc2cccc(C)n12", "Potency": "inconclusive: 17.8 µM [cytotoxic, partial curve, poor fit]"}, {"molecule": "Cc1cc(S(=O)(=O)Nc2ccc3oc4c(c3c2)CCCC4)ccc1Cl", "Potency": "inconclusive: 25.1 µM [cytotoxic, single point]"}, {"molecule": "COc1ccc(NC(=O)c2cccs2)cc1", "Potency": "inconclusive: 11.2 µM [cytotoxic, single point]"}, {"molecule": "Cc1c(Cl)cccc1NC(=O)c1oc2ccc(S(=O)(=O)N3CCC4(CC3)OCCO4)cc2c1C", "activity change, negative = cytotoxicity": "inactive: -0.479%"}, {"molecule": "COCCCNC(=O)CSc1c2c(nc3ccc(Cl)cc13)CCCC2", "activity change, negative = cytotoxicity": "inactive: 24.2%"}]}]}
